The list shows a part of the results. The energies were worked out here from pooled read counts, against the library average; single values are noisy.

In this experiment the target is T1, Pho4 (S. cerevisiae) (UniProt P07270).
T1 sequence: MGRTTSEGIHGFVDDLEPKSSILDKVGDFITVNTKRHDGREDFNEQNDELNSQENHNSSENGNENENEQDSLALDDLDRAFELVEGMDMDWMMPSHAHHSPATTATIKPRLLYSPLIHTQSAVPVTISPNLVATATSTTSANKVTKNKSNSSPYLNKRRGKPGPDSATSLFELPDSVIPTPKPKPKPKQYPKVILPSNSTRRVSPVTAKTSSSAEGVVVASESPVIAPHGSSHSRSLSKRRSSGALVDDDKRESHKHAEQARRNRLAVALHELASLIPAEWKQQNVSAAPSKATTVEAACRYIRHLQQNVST
Put plainly: relative binding free energy (BET-seq); higher = weaker binding. As to conditions: reference: library average.
In the case of GGCTGCACGTGATGAG, the “relative binding free energy” value came to 0.19 kcal/mol. Next, TTTGGCACGTGTATCG: -0.01 kcal/mol.

With TTATACACGTGGTTCT, the “relative binding free energy” value is -0.02 kcal/mol. Next, GATTTCACGTGAATTG: 0.31 kcal/mol; ACATGCACGTGTCGGG: 0.07 kcal/mol; TTTGCCACGTGGTAGC: -0.08 kcal/mol. As for CATTTCACGTGGGAGT, the “relative binding free energy” value turned out to be 0.28 kcal/mol. As for GGTGCCACGTGAGGTG, the figure is 0.17 kcal/mol; as for GTTGGCACGTGTAACG, 0.14 kcal/mol. Next, GAGTTCACGTGTTTAG: 0.27 kcal/mol; GAGGCCACGTGGGGAT: -0.16 kcal/mol.

For the sequence TCGGGCACGTGTAGTG, the “relative binding free energy” value is -0.09 kcal/mol.

Regarding TTGGCCACGTGATGTG, the “relative binding free energy” value was found to be 0.09 kcal/mol. As for GTGGTCACGTGCTGCT, the figure is 0.05 kcal/mol. As for TTATGCACGTGTTGAG, the figure is -0.05 kcal/mol; as for TCTTACACGTGGATGG, 0.32 kcal/mol; as for GTGGCCACGTGGGAAT, -0.1 kcal/mol. As for TGTATCACGTGGACAG, the “relative binding free energy” value is 0.1 kcal/mol.

Regarding TTAGGCACGTGGCTGA, the “relative binding free energy” value was -0.14 kcal/mol.

Turning to GCGATCACGTGGGGGA, the “relative binding free energy” value was 0.2 kcal/mol. Next, GCCTTCACGTGTGTGA: 0.4 kcal/mol. Next, ATAATCACGTGTTCTT: 0.18 kcal/mol. Next, TTAAACACGTGATAAG: 0.17 kcal/mol; AGGGACACGTGGCGAT: -0.01 kcal/mol.

For TCGGGCACGTGGGGGG, the “relative binding free energy” value is -0.12 kcal/mol. Next, AGGATCACGTGTTATG: 0.22 kcal/mol. Take CTTAACACGTGGGTGT: the “relative binding free energy” value is -0.24 kcal/mol.

As for AAGCTCACGTGAGTTT, the “relative binding free energy” value was 0.53 kcal/mol.

GTGTTCACGTGTTAAC: the “relative binding free energy” value came out at 0.4 kcal/mol. As for GCGGTCACGTGATGGG, the figure is 0.28 kcal/mol; as for GACGGCACGTGGCGGG, -0.19 kcal/mol; as for TCTGTCACGTGCGGAT, 0.06 kcal/mol. CGAGGCACGTGGGTCG: the “relative binding free energy” value is -0.4 kcal/mol.

On to AGAGTCACGTGAATTT, for which the “relative binding free energy” value is 0.24 kcal/mol.

Regarding TAGTACACGTGTGCTT, the “relative binding free energy” value is -0.01 kcal/mol.

On to GTGTGCACGTGTGATG, for which the “relative binding free energy” value is 0.14 kcal/mol. Next, AATATCACGTGATCGT: 0.26 kcal/mol.

Consider TGATACACGTGAAGGG, for which the “relative binding free energy” value was 0.4 kcal/mol. Next, GGTAACACGTGGCGCG: 0 kcal/mol; TATGTCACGTGTTGTT: 0.12 kcal/mol. Next, GTTCACACGTGGAGAG: 0.25 kcal/mol; AATGTCACGTGGCGTG: 0.01 kcal/mol; TATTCCACGTGAGGTT: 0.25 kcal/mol. For AGGGGCACGTGTAATG, the “relative binding free energy” value is -0.09 kcal/mol. As for GAGAGCACGTGTAGGG, the figure is -0.18 kcal/mol. As for GAATTCACGTGTTTGT, the “relative binding free energy” value worked out at 0.38 kcal/mol. Next, GATGTCACGTGTATCT: 0.23 kcal/mol; ACTTTCACGTGGATGG: 0.27 kcal/mol; TGGTTCACGTGGTCCA: 0.23 kcal/mol. Next, AGGTACACGTGGAGGC: 0.03 kcal/mol; TTTCTCACGTGCAGGT: 0.27 kcal/mol; TTTGTCACGTGTAGAG: 0.1 kcal/mol. As to GTTTACACGTGAATGG, the “relative binding free energy” value is 0.35 kcal/mol.

On to GTTGACACGTGGTTTC, for which the “relative binding free energy” value worked out at 0.12 kcal/mol. In the case of AGCAGCACGTGTTGTG, the “relative binding free energy” value is -0.1 kcal/mol. As for CGTTGCACGTGGGATA, the figure is -0.02 kcal/mol. As to TCGGGCACGTGATAAT, the “relative binding free energy” value was 0.13 kcal/mol. Next, AATGTCACGTGATAGA: 0.21 kcal/mol; GTAATCACGTGAAGGA: 0.37 kcal/mol; TCTTACACGTGGTGAT: 0.17 kcal/mol. As for AGGTCCACGTGTTGAG, the “relative binding free energy” value turned out to be 0.19 kcal/mol. Next, CAGTTCACGTGTCGTG: 0.48 kcal/mol; GGGGGCACGTGAGCGG: 0.1 kcal/mol; TGAAGCACGTGACGGT: 0.04 kcal/mol.

Consider AGCGTCACGTGATTGG, for which the “relative binding free energy” value came out at 0.13 kcal/mol.

On to ACTTGCACGTGAGTGT, for which the “relative binding free energy” value came out at 0.12 kcal/mol.

For the sequence GTATTCACGTGTTTCA, the “relative binding free energy” value is 0.24 kcal/mol.

In the case of TATTTCACGTGATTAT, the “relative binding free energy” value was determined as 0.37 kcal/mol. As for TTTCCCACGTGTGGGT, the figure is -0.06 kcal/mol; as for TAGTACACGTGCATGT, 0.15 kcal/mol. Next, AGGGACACGTGGGGAT: -0.07 kcal/mol. As for AAGGTCACGTGAAAGT, the figure is 0.35 kcal/mol; as for ATCGTCACGTGTGCTG, 0.03 kcal/mol. On to CGTGCCACGTGGGAGT, for which the “relative binding free energy” value was -0.04 kcal/mol. As for CGGAGCACGTGTTTTG, the figure is -0.08 kcal/mol; as for GGAATCACGTGGGAGT, 0.04 kcal/mol. Next, ATATACACGTGGTTAT: -0.05 kcal/mol. As for CTTGGCACGTGTGCGG, the figure is -0.02 kcal/mol.

For TTTGGCACGTGAAATG, the “relative binding free energy” value was 0.25 kcal/mol. Next, TATCTCACGTGTGATT: 0.15 kcal/mol; ACAGGCACGTGGGTTA: -0.3 kcal/mol; GTTGTCACGTGCTTTT: 0.14 kcal/mol. Next, TGTAGCACGTGTATGA: -0.03 kcal/mol; AGGTTCACGTGGATGC: 0.26 kcal/mol; TTCGACACGTGCGTTG: 0.03 kcal/mol. Take TATGACACGTGTTGAT: the “relative binding free energy” value worked out at 0 kcal/mol. As for AATCACACGTGGGGGG, the figure is -0.03 kcal/mol.

As to GTTGACACGTGTAATT, the “relative binding free energy” value turned out to be 0.25 kcal/mol.

Take GGGTACACGTGTTTAA: the “relative binding free energy” value is 0.15 kcal/mol. Next, TGACTCACGTGGGCGG: 0.15 kcal/mol. Next, GGGAGCACGTGAGAAT: 0.27 kcal/mol; GTCAGCACGTGGTATT: -0.08 kcal/mol; TAAAGCACGTGTGATT: -0.03 kcal/mol. Next, TTTGGCACGTGCCGGG: -0.18 kcal/mol; GTGTACACGTGTCGGT: 0.07 kcal/mol; TCATGCACGTGGGTCG: -0.12 kcal/mol. On to TTCAGCACGTGGATAT, for which the “relative binding free energy” value was -0.09 kcal/mol.

For AGGTTCACGTGTAGTC, the “relative binding free energy” value is 0.29 kcal/mol. As for GTGGACACGTGGGGAT, the figure is -0.03 kcal/mol; as for AATTTCACGTGAAGTT, 0.22 kcal/mol.

With TTACTCACGTGGTATT, the “relative binding free energy” value stood at 0.1 kcal/mol.

For GGTTGCACGTGATAGC, the “relative binding free energy” value is 0.1 kcal/mol. As for ATGGTCACGTGTTAAG, the figure is 0.14 kcal/mol.

As for AGGGTCACGTGCGTTA, the “relative binding free energy” value turned out to be 0.21 kcal/mol. As for CAGGTCACGTGTGTTA, the figure is 0.19 kcal/mol; as for TTAAACACGTGAGGGT, 0.31 kcal/mol; as for ATGGCCACGTGTGTGC, -0.13 kcal/mol. Next, TTCTACACGTGTGGTG: 0.05 kcal/mol; GTAAGCACGTGATTGG: 0.06 kcal/mol; CTGGGCACGTGAGGGT: 0.12 kcal/mol. As for AACTGCACGTGAGTTA, the figure is 0.24 kcal/mol; as for TATTTCACGTGTAAGC, 0.3 kcal/mol. ATAGGCACGTGTCGAG: the “relative binding free energy” value is -0.09 kcal/mol. In the case of TAGAACACGTGGTTGA, the “relative binding free energy” value came out at 0.02 kcal/mol. As for TATGGCACGTGGTATA, the figure is -0.29 kcal/mol.

Values taken from the BET-seq Pho4 binding data (Le et al. 2018).
